Results reported in a compilation of properties of binary mixtures (doi:10.1007/s10973-018-7399-0).
Some of these densities may be calculated back from excess volumes.

Assay: xn = mol fraction of the nth substance listed
Settings: 93.2 kPa

CC(=O)[O-].CCCC[NH3+] + CCO
mass density [kg/m3]
Settings	293.15 K	298.15 K	303.15 K	308.15 K	313.15 K
x1 = 0.0501	813.3	809.1	–	800.8	–
x1 = 0.0992	832.1	828.1	824.1	820	816
x1 = 0.15	–	844.6	840.7	836.8	–
x1 = 0.2001	–	858.6	854.8	851	–
x1 = 0.2511	874.7	871	867.3	863.5	859.8
x1 = 0.3001	–	881.5	877.9	874.2	–
x1 = 0.35	894.7	891.1	887.5	–	880.3
x1 = 0.3999	903.2	–	896.2	–	889.1
x1 = 0.4483	910.6	907.1	903.6	900.1	–
x1 = 0.4987	–	914.1	910.7	907.2	903.8
x1 = 0.5503	924.1	–	917.2	913.8	910.4
x1 = 0.6002	929.8	–	923	919.7	916.3
x1 = 0.6511	935.2	931.9	928.5	925.1	–
x1 = 0.7008	–	–	933.4	930.1	926.8
x1 = 0.7495	–	–	937.9	934.6	931.3
x1 = 0.7988	–	945.4	942.1	938.9	935.6
x1 = 0.8496	–	–	946.1	–	939.6
x1 = 0.9015	956.3	953.1	949.9	946.7	943.5
x1 = 0.9493	959.6	956.4	953.2	950	–
x1 = 1	962.9	959.7	–	953.3	950.2
